Measurements taken from the supplement of paper PMC10338343.
± gives the standard deviation. The list shows a part of the results, in another mix than the full data.

These sequences were tested on MIWI (PIWIL1) piRISC loaded with L1MC piRNA (30 nt) (assay: pre-steady-state target cleavage rate (min^-1); MIWI and MILI are mouse PIWI proteins and EfPiwi is from a freshwater sponge; tags in brackets are library labels; higher = faster piRNA-guided slicing of the target). Settings: guide: L1MC piRNA 5'p-UAACUAAAUACUAUGCAAGCUGUAGGUCCU; auxiliary factor: 500 nM mouse GTSF1.
In short: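 The pre-steady-state cleavage rate was derived from a burst-and-steady-state fit of Cleave-'n-Seq data. For these assays, 1 nM active affinity-purified piRISC loaded with a single synthetic guide was mixed with […] a transcribed, DNA-blocked target RNA library in HEPES–potassium acetate buffer at 33 °C, with or without 500 nM GTSF1 partner protein, for 0–8 or 0–960 min. Sequencing counts of uncleaved targets were normalised to depth and to weakly complementary targets, and k3 was capped at 0.0001 min^-1 after three trials were pooled.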
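Also: 1 nM active piRISC with 0.1 nM target library at 33 °C single turnover.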

Sequence | pre-steady-state target cleavage rate
UCCUGGAUGAGGUUGCAUAGUAUUUUGUUA | 0.102 ± 0.021
UCGACCUACAGCUUCCAUAGUAUUUAGUUA | 0.139 ± 0.033
UCCUGGAUGUCCUUGCAUAGUAUUUAGUGA | 0.11 ± 0.018
AGGACCUACAGCUUGCUUAGUAUUUAGUUA | 1.43 ± 0.071
UCCUGGUAGAGCUUGCAUAGUAUUUAGAUA | 0.28 ± 0.031
UCCUGGAUCAGCUUGCAUAGAAUUUAGUUA | 0.258 ± 0.028
UCCUGGAUGAGCUUGCAUAGUAUAUAGUUA | 0.398 ± 0.046
UCCUCCUACAGCUUCCAUAGUAUUUAGUUA | 0.0782 ± 0.022
UGGACCAUGAGCUUGCAUAGUAUUUACAAA | 0.159 ± 0.021
UGGACCUACAGCUUGCAUAGUAUAUAGAUA | 0.177 ± 0.029
UCCUCCUUGUGCUUGCAUAGUAUUUAGAAA | 0.0893 ± 0.015
AGGACCAACAGCUUGCAUAGUAUUUACAAA | 0.454 ± 0.065
UCCUGGAACAGCUUGCUUAGUAAUUAGUUA | 0.485 ± 0.041
UCCUGGAACAGCUUGCAUAGUAGUUUAGUUA | 0.283 ± 0.018
UCCUGGUACAGCUUGCAUAGUAUUUCGUUA | 0.217 ± 0.05
UCCUGGAACAGCUAGCAAAGUAUUUAGUUA | 0.677 ± 0.029
UCGACCUACAGCUUGCAUUGUAUAUAGUUA | 0.554 ± 0.033
UCCUCCUACAACUUGCAUAGUAUUUAGUUA | 1.05 ± 0.034
UCGACCAACAGCUUGCAUAGUAUAUAGUUA | 0.823 ± 0.049
UGGACCUACAGCAUGCAUAGUAUUUUGUUA | 0.807 ± 0.066

Sequence | pre-steady-state target cleavage rate
UCCUCCUACAGCAUGCAUAGUAUUAAGUUA | 0.682 ± 0.039
AGGACCAACAGCUUGCAUAGUAUUUUCAAA | 0.376 ± 0.047
UCCUGGAUCAGCUUGCUAUGUAUUUAGUUA | 0.0118 ± 0.0044
UGGACCUACAGCAUGCAUAGUAUUUAGAUA | 0.461 ± 0.035
UCCUGGUACAGCUUGCUUAGUAUUUAGUAA | 0.504 ± 0.064
UCCUGCUACCGCUUGCAUAGUAUUUAGUUA | 1.1 ± 0.1
UCCACGAUCAGCUUGCAUAGUAUUUUCAAA | 0.338 ± 0.033
AGGACCUACAGCUAGCAUAGUAUAUAGUUA | 0.639 ± 0.065
UGGACCUUGAGCUUGCAUAGUAUUUAGUAA | 0.766 ± 0.065
UCCUGGAUGAGCUUGCAUAGUUUAUAGUUA | 0.0183 ± 0.0061
AGGACCUACAGCUAGCAUAGUUUUUAGUUA | 0.354 ± 0.024
UGGACCUACAGCUUGCAUAGUAUUUAGUCUA | 0.0666 ± 0.01
UCCUGCUACUGCUAGCAUAGUAUUUAGUUA | 0.764 ± 0.062
UCCUGGAUCAUCUUGCAUAGUAUUUAGUUA | 0.83 ± 0.051
UCGACCUUCAGCUUGCAUAGUAUUUAGUAA | 1.05 ± 0.065
UCCACCUUCAGCUUGCAUAGUAUUUAGUAA | 0.628 ± 0.038
UCCUGGUACAGCUUUCAUAGUAUUUAGUUA | 0.379 ± 0.06
UCGAGGAACAGCUUGCAUAGUAUUUAGUUA | 1.02 ± 0.076
UCCUGGUUCAGCUUGCAUAGUAAUUAGUUA | 0.675 ± 0.059
UCCUGGUACAGCAUGGAUAGUAUUUAGUUA | 0.573 ± 0.042
